Out of some 150,000 compounds screened, about 540 (0.36%) showed an effect of 50% or more. The list shows a part of the results.

This experiment has as its system Plasmodium falciparum. Put plainly: Primary screen in NF54 nanoGlo assay, in single point, at 2uM, 72h; a lower Z score goes with more inhibition. It counts as functional, Erythrocyte. Conditions: timepoint 72 hour.
In the case of `Cc1ccc2oc(-c3nnc(C(=O)NCc4ccccc4)o3)c(C)c2c1`, the % Inhibition (usually the change of the read-out against control, counted positive when it falls) is listed as 10% and the Z score is listed as -1.18.

Regarding `NC(=O)CS(=O)(=O)NC(=O)C1CCCCCCC1`, the “% Inhibition” value was found to be 3% and the Z score is -0.53.

Regarding `O=C1NCCN(Cc2cc(CN3CCCC3)cs2)[C@H]1c1cccc(F)c1`, the “% Inhibition” value is reported as 2% and the Z score is given as -0.35.

Take `Cc1nc(N2CCOCC2)nc2c1CCCC2`: the “% Inhibition” value is on record as 33% and the Z score is -0.57.

Consider `COc1ccc(N2CCN(c3ncccc3-c3nc(-c4cccc(C)c4)no3)CC2)cc1`, for which the “% Inhibition” value was determined as 22% and the Z score was -2.6.

With `Cc1sc(-c2nc(C(C)C)cs2)cc1S(=O)(=O)NCc1ccc2c(c1)OCO2`, the “% Inhibition” value is listed as -14% and the Z score turned out to be 1.71.

In the case of `CCOC(=O)Cc1csc(CNS(=O)(=O)N(C)C(C)C)n1`, the “% Inhibition” value was 7% and the Z score is on record as -1.27.

In the case of `CC(C)(C)c1nc(CN2C[C@H]3CCC(=O)c4cccc2c43)n[nH]1`, the “% Inhibition” value was found to be 20% and the Z score is listed as -2.48.

On to `O=C(Nc1ccccc1C(=O)NCCc1nnc2ccccn12)c1ccco1`, for which the “% Inhibition” value was -9% and the Z score came to 1.66.

For the compound `CCOCc1cc(=O)n2nc(N)nc2[nH]1`, the “% Inhibition” value was -8% and the Z score is recorded as 1.35.

In the case of `O=C(c1ccncc1Br)N1CCCCCCC1`, the “% Inhibition” value is given as -10% and the Z score is given as 0.91.

As to `CCOc1ccc(OC)cc1NCC1CCN(C(=O)C(C)(C)C)CC1`, the “% Inhibition” value is recorded as -12% and the Z score is on record as 1.27.

Take `Cc1ccn2cc(CNC(=O)CC[C@H]3CCCO3)nc2n1`: the “% Inhibition” value was -14% and the Z score was found to be 2.16.

Turning to `COc1ccc(-c2nc3cc(C)ccc3cc2CN2CCC[C@H](C#N)C2)cc1OC`, the “% Inhibition” value is -18% and the Z score is listed as 2.36.

With `O=C(NCc1cccnc1)NC1(CO)CCCC1`, the “% Inhibition” value is listed as -2% and the Z score came out at 0.31.

For `CN(C)c1nc(N(C)Cc2ccon2)ncc1F`, the “% Inhibition” value is on record as -7% and the Z score worked out at 0.98.

Regarding `COc1ccc(CN2C(=O)N[C@@H](CC(=O)Nc3cccc4[nH]ccc34)C2=O)cc1`, the “% Inhibition” value was 8% and the Z score is -1.

For `COc1c(CNC2CCN(C(=O)C(C)C)CC2)c(C)nn1C`, the “% Inhibition” value was -7% and the Z score is 1.06.

Regarding `C#CCCC1(CCC(=O)N2CCC[C@H](c3ccccn3)C2)N=N1`, the “% Inhibition” value is -16% and the Z score came to 1.91.

Take `CCCN1CCC[C@H]1c1nc(-c2ccc(F)cc2)no1`: the “% Inhibition” value is -23% and the Z score turned out to be 2.51.

For `O=C(CC(=O)N1CCn2cccc2[C@H]1c1cccc(Cl)c1)Nc1ccc(F)cc1`, the “% Inhibition” value is reported as -4% and the Z score is 0.58.

On to `NC(=NC[C@H](O)c1cccc(F)c1)N1CCN(c2nccs2)CC1`, for which the “% Inhibition” value is given as 2% and the Z score is -0.28.

Turning to `Cc1ccc(-n2cc(-c3ccccc3)nc2NC(=O)CN(C(=O)c2ccc3c(c2)OCO3)C2CC2)cc1C`, the “% Inhibition” value was -19% and the Z score is 2.64.

Regarding `CNC(=O)[C@@H]1CC[C@](C)(C(=O)N2Cc3cnc(C)cc3C2)C1(C)C`, the “% Inhibition” value was -7% and the Z score worked out at 1.17.

`CC(c1ccc(S(C)(=O)=O)cc1)N1CCC(N2CCCC2)C1` (stereo unspecified): the “% Inhibition” value was -10% and the Z score came out at 0.97.

As for `Cc1cn(C)nc1CN1CC[C@H]2[C@@H](C1)NC(=O)N2C`, the “% Inhibition” value is -4% and the Z score amounted to 0.41.

`Cc1nnc([C@@H](NC(=O)CCc2cccnc2)C(C)C)[nH]1`: the “% Inhibition” value is reported as -6% and the Z score is on record as 1.23.

Turning to `Cc1nsc(NC(=O)COc2cccc(C)c2C)n1`, the “% Inhibition” value amounted to 7% and the Z score is listed as -1.07.

For the compound `C[C@@H](c1cnn(C)c1)N(C)c1cc(N2CCOCC2)ncn1`, the “% Inhibition” value is -11% and the Z score was found to be 0.96.

`Cc1[nH]c(CN2CCC[C@H](C(=O)N3CCCC3)C2)cc1C#N`: the “% Inhibition” value is recorded as 4% and the Z score is -0.55.

Regarding `C=C(C)CN(CC)C(=O)Nc1ccn(CCCOC)n1`, the “% Inhibition” value is on record as -10% and the Z score is reported as 1.32.

For `CC1CCOC1C(=O)N(CC(F)(F)F)C(C)C1CC1` (stereo unspecified), the “% Inhibition” value was determined as 4% and the Z score is -0.44.

Take `COc1ccc(CNC(=O)c2cccn2-c2cccnc2)cc1`: the “% Inhibition” value is -10% and the Z score was 0.97.

As for `COc1cccc(NC(=O)Cn2nc3c4ccccc4ncn3c2=O)c1`, the “% Inhibition” value is on record as -9% and the Z score is reported as 1.56.

`COc1ccc(CNC(=O)[C@@H]2CCN(c3ccc(F)cc3)C2=O)cc1`: the “% Inhibition” value was -4% and the Z score is listed as 0.38.

As for `CC(=O)NCCN(CCC(=O)Nc1ccc(Cl)cc1F)[C@@H](C)C(=O)OC(C)(C)C`, the “% Inhibition” value turned out to be 2% and the Z score was -0.18.

As for `CNC(=O)c1cccc(N2CC[C@@]3(CCCN(C4CCCC4)C3=O)C2)n1`, the “% Inhibition” value is recorded as -3% and the Z score is reported as 0.29.

For the compound `Cc1cc(C(=O)N(Cc2cccs2)c2ccc(F)cc2F)on1`, the “% Inhibition” value came to 13% and the Z score is listed as -1.31.

As for `NC(=O)c1ccnc(/C=C/C2CCCCC2)c1`, the “% Inhibition” value is recorded as -3% and the Z score came out at 0.42.

Take `Clc1ccc(-c2[nH]ncc2CN2CCC(Cc3ccccc3)CC2)c(Cl)c1`: the “% Inhibition” value is reported as -7% and the Z score is given as 1.3.

For the compound `CNC(=O)c1cnc(C=Cc2c(C3CC3)cnn2C)s1`, the “% Inhibition” value is -3% and the Z score is 0.42.

Regarding `COc1ccc(-c2ncc3c(n2)CCN(S(=O)(=O)c2ccc(F)cc2)C3)cc1`, the “% Inhibition” value is -3% and the Z score is reported as 0.44.

Turning to `Fc1ccc(CN[C@H](c2ccc3c(c2)CCC3)c2cccs2)c(F)c1`, the “% Inhibition” value came to 6% and the Z score is -0.73.

The values above are taken from ChEMBL document CHEMBL4888484, “Replenishing the malaria drug discovery pipeline: Screening and hit evaluation of the MMV Hit Generation Library 1 (HGL1) against asexual blood stage Plasmodium falciparum ,using a nano luciferase reporter read-out” (2022).
